# Data taken from PubChem BioAssay AID1508642 (National Center for Advancing Translational Sciences (NCATS), 2021).
# In all, about 43,000 compounds went through this assay and about 200 (0.47%) were called active. Inconclusive results (about 12%) are left out. Calls come from the whole dose curve; as a rule, active = well fitted cell-killing curve with a large enough effect; inconclusive = small, poorly fitted or top-dose-only effect, or effect the other way; inactive = flat fitted curve, though single readings scatter. Some of the results follow.
# Assay: Cell viability qHTS assay in S16 Pmp22-F2sN cells; note: nearly all actives have a fitted effect of over 65% in size
# Conditions: S16 Pmp22-F2sN Schwann cells viability, CellTiter-Glo, 24 h; series mostly up to 57.5 µM; activity change, negative = cytotoxicity: at the top concentration
# In short: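 Used to flag compounds lowering reporter output through toxicity, this quantitative HTS measures ATP-based CellTiter-Glo luminescence in S16 Pmp22-F2sN Schwann cells after 24 h compound exposure at 37C.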
# % is set by controls: 0 for no effect and ±100 for the full control effect.
row,SMILES,"activity change, negative = cytotoxicity"
1,CCc1ccccc1Nc1nn2c(=O)c3ccc(C(=O)NCc4cccs4)cc3nc2s1,inactive: -18.5%
2,CCOC(=O)Cn1c(=O)oc2cc(S(=O)(=O)Nc3cc(OC)cc(OC)c3)ccc21,inactive: -5.4%
3,COc1ccccc1C(=O)NCc1ccc2c(c1)CCN2C(=O)c1cccc(C)c1,inactive: 9.22%
4,COc1ccc(N2CCN(C(=O)C3CCN(S(=O)(=O)c4cnc[nH]4)CC3)CC2)cc1,inactive: 0.552%
5,Cc1cccc(C(=O)Nc2cccc(C(=O)OCc3cc(=O)n4c5c(sc4n3)CCCC5)c2)c1,inactive: -29.6%
6,CN1CCN(C(c2ccc(F)cc2)c2sc3nc(-c4ccco4)nn3c2O)CC1 (stereo not given),inactive: 0.788%
7,CCc1ccc(S(=O)(=O)c2nnn3c2nc(NCc2cccs2)c2sccc23)cc1,inactive: 1.45%
8,CCn1c(C)c(C)c2cc(C(=O)NCCc3cc(OC)c(OC)c(OC)c3)ccc21,inactive: -23.8%
9,COc1ccccc1C(=O)NCc1ccc2c(c1)CCN2C(=O)c1ccncc1,inactive: 5.82%
10,Cc1cc(NC(=O)CSc2nc3c([nH]c4ccccc43)c(=O)n2-c2cccc(Cl)c2)no1,inactive: -3.71%
11,Clc1ccc(-c2noc3ncnc(NCCCN4CCN(c5ccccc5)CC4)c23)cc1,inactive: -2.79%
12,COc1ccc(CNS(=O)(=O)c2cc(C(=O)Nc3cc(Cl)cc(Cl)c3)ccc2F)cc1,inactive: -13.7%
13,Cc1ccc(C)c(N2CCN(C(=O)C3CCN(S(=O)(=O)c4cn(C)cn4)CC3)CC2)c1,inactive: 2.03%
14,CC1=C(C(=O)Nc2cccnc2)C(c2ccc(F)cc2)n2nc(SCc3ccccc3F)nc2N1 (stereo not given),inactive: 0.638%
15,CCN(C(=O)c1cc2c(Cl)nc3ccccc3c2s1)c1cccc(Cl)c1,inactive: 16.1%
16,CCOC(=O)c1cnc2c(C)c(Cl)ccc2c1Nc1ccc(C)cc1C,inactive: -14.8%
17,CCOC(=O)N1CCc2c(sc(NCc3ccc(OCC)cc3)c2C(=O)Nc2ccc(OC)cc2OC)C1,inactive: -2.02%
18,O=C(NC1CCCC1)c1ccc(CSc2nc3ccncc3n2Cc2ccccc2F)cc1,inactive: 0.558%
19,COc1cc(NC(=O)CN(C)S(=O)(=O)c2ccc3[nH]c4c(c3c2)CCCC4)cc(OC)c1OC,inactive: -14.4%
20,COc1ccc(OC2CCN(S(=O)(=O)c3ccc(OC)cc3)CC2)cc1,inactive: -10.3%
21,O=C(CN(c1ccc(Cl)c(C(F)(F)F)c1)S(=O)(=O)c1ccccc1)N1CCc2ccccc2C1,inactive: -0.835%
22,Cc1ccc(NC(=O)c2sc(-n3nc(C)c(CCC(C)C)c3C)nc2C)cc1C,inactive: -7.56%
23,Cc1nc2ccn(Cc3cccs3)c(=O)c2cc1C(=O)N1CCN(c2ccc(F)cc2)CC1,inactive: -12%
24,Cc1ccc(OCCn2c(CNc3cccc(C)c3)nc3ccccc32)cc1,inactive: -22.2%

row,SMILES,"activity change, negative = cytotoxicity"
1,CCCN1CCc2nc(N3CCN(CC)CC3)ncc2C1,inactive: 5.66%
2,CCc1ccccc1N(C)C(=O)C1CCCN(c2ncnc3onc(-c4ccc(F)cc4)c23)C1 (stereo not given),inactive: 9.05%
3,CCCCOC(=O)c1ccc(NC(=O)c2cc(-c3ccccc3)on2)cc1,inactive: -0.265%
4,CC(=O)c1ccc(C(=O)N(CCCN(C)C)c2nc3c(C)c(C)ccc3s2)cc1,inactive: 3.39%
5,CS(=O)(=O)NCC(c1ccco1)N1CCN(c2ccccc2)CC1 (stereo not given),inactive: 15%
6,COc1ccccc1CNc1cc(-c2ccccc2)nc2nncn12,inactive: -13.6%
7,CCOc1cccc(C(=O)Nc2c(C(=O)c3ccc(OC)cc3)oc3ccccc23)c1,inactive: -2.68%
8,O=C(CC1N=C2c3ccccc3N=C(SCC(=O)Nc3cccc(Cl)c3)N2C1=O)NCc1cccs1 (stereo not given),inactive: -14.8%
9,CC1CCN(S(=O)(=O)c2ccc(N3CCCCS3(=O)=O)cc2)CC1,inactive: -4.81%
10,COc1ccc(CCNC(=O)Cn2cc(S(=O)(=O)Cc3ccccc3F)c3ccccc32)cc1OC,inactive: -2.86%
11,Cc1cccc(Cn2c(=O)n(CCC(=O)NCc3ccc4c(c3)OCO4)c(=O)c3sccc32)c1,inactive: 1.16%
12,COc1ccc2c(c1)Cc1sc(NC(=O)c3ccccc3Br)nc1-2,inactive: -11.6%
13,CCn1c(SCC(=O)Nc2ccc(C)cc2Br)nnc1-c1nonc1NC(C)=O,inactive: -0.526%
14,Cc1ccc(C)n1-c1nnc(N2CCC(C(=O)Nc3ccccc3Br)CC2)s1,inactive: -0.0795%
15,CCn1ccc2cc(S(=O)(=O)N3CCCN(C(=O)Nc4ccccc4C(F)(F)F)CC3)ccc21,inactive: 1.25%
16,COc1cccc(CNC(=O)CSc2nc(=O)[nH]c3c2CCCC3)c1,inactive: 0.634%
17,Oc1c(C(c2ccc(Cl)cc2Cl)N2CCOCC2)sc2nc(-c3ccco3)nn12 (stereo not given),inactive: 3.54%
18,CCc1ccc(NC(=O)Cn2c(=O)c(-c3ccccc3NC(C)=O)nc3ccccc32)cc1,inactive: -4.12%
19,Cc1ccc2c(=O)cc(C(=O)Nc3nnc(CC(C)C)s3)oc2c1C,inactive: 1.38%
20,Cc1nc(N2C(=O)c3oc4ccccc4c(=O)c3C2c2ccccc2F)sc1C (stereo not given),inactive: -17.5%
21,COc1cccc(N2CCN(S(=O)(=O)c3cc(Br)cc4c3N(C(=O)C3CC3)CC4)CC2)c1,inactive: 19.5%
22,COc1ccc(C2=NS(=O)(=O)N(C)C(C(=O)Nc3cc(C)ccc3O)=C2)cc1OC,inactive: 0.701%
23,CCOC(=O)c1c(C)n(-c2ccccc2)c2ccc(OC(=O)c3ccccc3)cc12,inactive: -10.6%
24,Cc1ccc(C)c(CSc2nc3ncccc3[nH]2)c1,inactive: -19.2%

row,SMILES,"activity change, negative = cytotoxicity"
1,Cc1cccc(N2C(=O)CSC23C(=O)N(Cc2cccc(F)c2)c2ccccc23)c1 (stereo not given),inactive: 0.631%
2,CN1CCN(C(CNC(=O)C(=O)Nc2ccccc2)c2ccc3c(c2)OCO3)CC1 (stereo not given),inactive: 11.1%
3,CC(C)COC(=O)/C(C#N)=C\c1ccc(-c2ccccc2Cl)o1,inactive: -1.48%
4,COc1ccccc1CNS(=O)(=O)c1cc(C(=O)Nc2cccc(C(F)(F)F)c2)ccc1F,inactive: -9.59%
5,Cc1c(CC(=O)NCCc2ccccc2F)c(=O)oc2c(C)c3occ(C(C)(C)C)c3cc12,inactive: -26.5%
6,COc1cccc(N2CCN(C(=O)c3ccc4c(=O)n(CCc5ccccc5)c(=O)[nH]c4c3)CC2)c1,inactive: 26%
7,COc1ccc(NC(=O)CSc2cn(CC(=O)N3CCOCC3)c3ccccc23)cc1OC,inactive: 2.4%
8,Cc1ccc(C)c(NC(=O)CCN2C(=O)c3ccccc3Sc3ncccc32)c1,inactive: -1.28%
9,O=C(CSc1ncc(S(=O)(=O)c2ccc(Br)cc2)c(=O)[nH]1)NCc1ccc(Cl)cc1,inactive: 2.58%
10,O=C(Nc1ccccc1)C(Cc1ccccc1)N1Cc2ccccc2C1=O (stereo not given),inactive: 1.04%
11,COc1ccc(-c2cc(C(=O)NCc3cc(OC)c(OC)c(OC)c3)[nH]n2)cc1,inactive: -12.2%
12,CCc1ccc(S(=O)(=O)c2nnn3c2nc(N2CCC(C)CC2)c2cc(Cl)ccc23)cc1,inactive: -13%
13,CCOC(=O)c1c(NC(=O)CSc2cn(CCNC(=O)c3ccccc3F)c3ccccc23)sc2c1CCC2,inactive: 0.703%
14,O=C(Nc1ccc2nc(SCC(=O)N3CCCc4ccccc43)sc2c1)c1cccc(F)c1,inactive: -12.5%
15,COC(=O)c1cc(S(=O)(=O)NCC2CCN(Cc3ccc(F)cc3)CC2)cn1C,inactive: -2.36%
16,Fc1ccc(-n2ncc3c(NCCCN4CCOCC4)ncnc32)cc1,inactive: 6.36%
17,COc1cc(NC(=O)CCc2c(C)nn(-c3ccc4nncn4n3)c2C)cc(OC)c1OC,inactive: 2.99%
18,Cc1ccc(Cl)cc1N1CCN(S(=O)(=O)c2ccc3[nH]c4c(c3c2)CCCCC4)CC1,inactive: -2.11%
19,COc1cccc(CNC(=O)c2ccc(CSc3nc4ccncc4n3Cc3cccc(C)c3)cc2)c1,inactive: -21.4%
20,Cc1ccc2c(c1)N(CCC(=O)NCc1ccc(F)cc1)C(=O)CO2,inactive: -0.846%
21,Cc1cccc(CSc2ncc(CO)n2Cc2ccc(F)cc2)c1,inactive: -14.5%
22,Cc1ccc2c(c1)-c1nc(-c3ccc(Cl)cc3)cc(-c3coc4ccccc4c3=O)c1CO2,inactive: 22.4%
23,Cc1cc(C)c2c(=O)cc(C(=O)Nc3sc4c(c3C(=O)NCc3ccccc3)CCCC4)oc2c1,inactive: -3.04%
24,CCCSc1ncc(Cl)c(C(=O)Nc2ccc(S(=O)(=O)Nc3ncccn3)cc2)n1,inactive: 1.75%

row,SMILES,"activity change, negative = cytotoxicity"
1,Cc1cccc(NC(=O)C(=O)NCC(c2ccc3c(c2)OCO3)N2CCOCC2)c1C (stereo not given),inactive: -9.55%
2,COc1cc(OC)cc(C(=O)Oc2c(Sc3ccccc3)c(C)nn2C(C)(C)C)c1,inactive: -13.1%
3,Cc1cn2c(=O)cc(COC(=O)c3cccc(NC(=O)COc4ccccc4Cl)c3)nc2s1,inactive: 12.9%
4,CC(C)CCNC(=O)CCCN1C(=O)c2ccccc2Sc2ncccc21,inactive: 8.89%
5,COc1cc(-c2noc(CN3CCN(c4ccccc4)CC3)n2)cc(OC)c1OC,inactive: 1.1%
6,CN1CCN(C(CNC(=O)c2cccc(F)c2)c2ccc3c(c2)OCO3)CC1 (stereo not given),inactive: 9.37%
7,CCOc1ccc(-n2c(Cc3ccccc3)nnc2SCc2nc(-c3ccccc3OC)no2)cc1,inactive: -11.9%
8,Cc1cc(C)c(NC(=O)C2CCN(c3nc4ccccc4[nH]3)CC2)c(C)c1,inactive: 19.7%
9,O=C(Nc1cccs1)Nc1cc(C(F)(F)F)ccc1Cl,inactive: -27.5%
10,Cc1ccc(Cl)cc1N1CCN(C(=O)c2cnc(N3CCOCC3)c3ccccc23)CC1,inactive: -22.2%
11,Cc1ccccc1-n1c(SCC(=O)Nc2ccc(Cl)cc2F)nnc1-c1cc2occc2n1C,inactive: 4.97%
12,CCc1ccc(NC(=O)CN2CCN(Cc3ccccc3)S2(=O)=O)cc1,inactive: -20.4%
13,CCOC(=O)C1CCN(c2ncnc3c2c(-c2ccccc2)cn3-c2cccc(C)c2)CC1,inactive: 3.75%
14,Cc1oc2c(c(C)cc3oc(=O)c(CC(=O)NCCc4ccccc4F)c(C)c32)c1C,inactive: 17.1%
15,Cc1ccc(Cn2c(C(=O)O)c(CNCc3ccccc3Cl)c3ccc(C)cc32)cc1,inactive: 4.53%
16,COc1cccc(NC(=O)CSc2nc3c(oc4ccccc43)c(=O)n2Cc2ccco2)c1,inactive: -4.87%
17,O=C(Nc1ccc2oc(-c3cccnc3)nc2c1)c1cccc(Br)c1,inactive: -5.39%
18,Cc1ccc(N(CC(=O)NCCc2ccc(Cl)cc2)S(=O)(=O)N(C)C)cc1,inactive: -3.39%
19,Cc1ccc(-c2nc3cc(C(C)C)ccc3o2)cc1NC(=O)c1cc2ccccc2o1,inactive: -11.3%
20,CCc1ccc(CNC(=O)c2sc3ncccc3c2-n2c(C)ccc2C)cc1,inactive: -18.3%
21,CCOc1ccccc1CNS(=O)(=O)c1ccc2c(c1)CCCN2C(C)=O,inactive: 2.85%
22,O=C(Cn1ccn(-c2ccc(F)c(F)c2)c(=O)c1=O)Nc1ccccc1F,inactive: -0.617%
23,Cc1ccc(OCC(=O)Nc2ccc(S(=O)(=O)Nc3cc(C)nc(C)n3)cc2)c(Br)c1,inactive: -3.72%
